# Assay results as given in article PMC5505202.
# B1: unnamed (parent)
# chain 1: MLPYTVNFKVSARTLTGALNAHNKAAVDWGWQGLIAYGCHSLVVVIDSITAQTLQVLEKHKADVVKVKWARENYHHNIGSPYCLRLASADVNGKIIVWDVAAGVAQCEIQEHAKPIQDVQWLWNQDASRDLLLAIHPPNYIVLWNADTGTKLWKKSYADNILSFSFDPFDPSHLTLLTSEGIVFISDFSPSKPPSGPGKKVYISSPHSSPAHNKLATATGAKKALNKVKILITQEKPSAEFITLNDCLQLAYLPSKRNHMLLLYPREILILDLEVNQTVGVIAIERTGVPFLQVIPCFQRDGLFCLHENGCITLRVRRSYNNIFTTSNEEPDPDPVQELTYDLRSQCDAIRVTKTVRPFSMVCCPVNENAAALVVSDGRVMIWELKSAVCNRNSRNSSSGVSPLYSPVSFCGIPVGVLQNKLPDLSLDNMIGQSAIAGEEHPRGSILREVHLKFLLTGLLSGLPAPQFAIRMCPPLTTKNIKMYQPLLAVGTSNGSVLVYHLTSGLLHKELSIHSCEVKGIEWTSLTSFLSFATSTPNNMGLVRNELQLVDLPTGRSIAFRGERGNDESAIEMIKVSHLKQYLAVVFRDKPLELWDVRTCTLLREMSKNFPTITALEWSPSHNLKSLRKKQLATREAMARQTVVSDTELSIVESSVISLLQEAESKSELSQNISAREHFVFTDIDGQVYHLTVEGNSVKDSARIPPDGSMGSITCIAWKGDTLVLGDMDGNLNFWDLKGRVSRGIPTHRSWVRKIRFAPGKGNQKLIAMYNDGAEVWDTKEVQMVSSLRSGRNVTFRILDVDWCTSDKVILASDDGCIRVLEMSMKSACFRMDEQELTEPVWCPYLLVPRASLALKAFLLHQPWNGQYSLDISHVDYPENEEIKNLLQEQLNSLSNDIKKLLLDPEFTLLQRCLLVSRLYGDESELHFWTVAAHYLHSLSQEKSASTTAPKEAAPRDKLSNPLDICYDVLCENAYFQKFQLERVNLQEVKRSTYDHTRKCTDQLLLLGQTDRAVQLLLETSADNQHYYCDSLKACLVTTVTSSGPSQSTIKLVATNMIANGKLAEGVQLLCLIDKAADACRYLQTYGEWNRAAWLAKVRLNPEECADVLRRWVDHLCSPQVNQKSKALLVLLSLGCFFSVAETLHSMRYFDRAALFVEACLKYGAFEVTEDTEKLITAIYADYARSLKNLGFKQGAVLFASKAGAAGKDLLNELESPKEEPIEE
# chain 2: MCLAGCTPRKAAAPGRGALPRARLPRTAPAAATMFQPAAKRGFTIESLVAKDGGTGGGTGGGGAGSHLLAAAASEEPLRPTALNYPHPSAAEAAFVSGFPAAAAAGAGRSLYGGPELVFPEAMNHPALTVHPAHQLGASPLQPPHSFFGAQHRDPLHFYPWVLRNRFFGHRFQASDVPQDGLLLHGPFARKPKRIRTAFSPSQLLRLERAFEKNHYVVGAERKQLAGSLSLSETQVKVWFQNRRTKYKRQKLEEEGPESEQKKKGSHHINRWRIATKQANGEDIDVTSND
# Variants of: B1
# Test: co-immunoprecipitation (anti-Myc IP, anti-EMX1 immunoblot), densitometry of EMX1 band
# Conditions: with partner chain of the complex shown; coexpressed in HEK293 cells; three independent experiments; parent: 3.6e+04; read off a plot
row,response (Arbitrary units),Variant
1,15000,chain 1 I436V
